The values below come from PubChem BioAssay (NCI).

Holding throughout (assay): NCI anticancer screen, dose series, 48 h
The test system of assay [1] is SF-268 CNS.
Assay [2] has as its system MDA-MB-231 breast.
The subject of assay [3] is BT-549 breast.
Assay [4] deals with MDA-MB-435.
Assay [5] deals with NCI/ADR-RES ovarian.
Assay [6] has as its system CAKI-1 renal.
The test system of assay [7] is HOP-92 NSCLC.
Assay [8] deals with DU-145 prostate.
The test system of assay [9] is TK-10 renal.
In assay [10] the test system is COLO 205 colon.
Assay [11] concerns SK-MEL-28 melanoma.
Assay [12] relates to A549 NSCLC.
The test system of assay [13] is UACC-257 melanoma.
Assay [14] concerns OVCAR-8 ovarian.
For assay [15], the system named is SR leukemia.
The test system of assay [16] is CCRF-CEM leukemia.
Assay [17] relates to HT29 colon.
Assay [18] concerns RPMI-8226 leukemia.

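Exposure lasted 48 hours, with cells grown in 96-well plates and compounds tested at five concentrations. TGI: concentration producing complete growth inhibition.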 Certain results were filed several times, with different values. Only these are listed. There may be further records. For part of these data: A record mostly stands for its own series of concentrations, not given here; a value can be the end of its range. For part of these data: Values that stand side by side are repeated measurements across runs, samples, wells, individuals or studies. Brackets tell where a record comes from. Letters hold for one entry only.

`COc1cccc(/C=C/C(=O)N2CC(CCl)c3c2cc(N)c2ccccc32)c1` (stereo not drawn): the TGI is 7.97 nM and > 100 µM in assay [1]; 50.4 nM and > 100 µM in assay [2]; 110 nM and > 100 µM in assay [3]; 19 nM and > 100 µM in assay [4]; 550 nM and > 100 µM in assay [5]; 4.02 nM and 271 nM in [6]. Moreover, the TGI in assay [7] is 552 nM and > 100 µM; in [8] it was 0.886 nM and 1.84 µM; in [9] it was 16.5 nM and > 100 µM; in assay [10] it was 51.9 nM and 1.43 µM; in assay [11] it was 30.6 nM and > 100 µM; in assay [12], 248 nM and > 100 µM. For the same compound, the TGI in [13] is 48.8 nM and > 100 µM; in assay [14] it was 28.3 nM and > 100 µM.
With `COc1cc(/C=C/c2ccnc3ccccc23)cc(OC)c1OC`, the TGI in assay [15] is 8.35 µM [sample A] and > 100 µM [sample B]; in [16] it was 8.53 µM [sample A] and > 100 µM [sample B]; in [17], 6.33 µM [sample A] and > 100 µM [sample B]; in assay [18], 9.79 µM [sample A] and > 100 µM [sample B].
